Data on 6 compounds can be found in PubChem BioAssay AID1963841 (Molecular Pharmacology Branch, DTP, NCI, 2024).

In general, viability, T/C refers to the result in the treated group divided by that in the control group, in per cent. As a reminder, the IC50 is the point on the concentration scale where inhibition reaches its midpoint.

Some entries of the source have several records that differ or are many. This is not the full list of results. The source may hold further records. The values listed for one entry are repeated measurements across runs, samples, wells, individuals or studies. Marks such as (2×) say how often a value occurs here. Marks such as [2022-09] give the month of the run.

In this experiment the test system is 439559-082-T-J2-PDC spheroid viability. Kind of experiment: Anticancer human tumor 439559-082-T-J2-PDC patient-derived colon adenocarcinoma cell line growth inhibition [POLQ]. The settings on record: spheroids with HUVEC and MSC; for viability, T/C: stronger effect = lower value. Here is the method:
Multicellular complex tumor spheroid response to Polymerase (POL) inhibitors (novobiocin, ART-558, RP6685) in combination with a variety of drugs and investigational agents in selected tumor cell lines
The POL inhibitors (novobiocin, ART-558, and RP6685) were evaluated both individually and in combination with standard of care and investigational anticancer small molecules within a complex spheroid model of solid tumors. . Complex spheroids include a stromal component modeled by human endothelial cells (HUVEC) and fibroblasts modeled by human mesenchymal stem cells (MSCs). The concentration ranges selected for each drug and investigational agent were based upon clinically achievable concentrations if the clinical Cmax of the agent was known.
Compounds. The drugs and investigational agents: novobiocin (NSC847541), ART-558 (NSC835418), RP-6685 (NSC848927), peposertib (NSC802822), ceralasertib (NSC780249), elimusertib (NSC800525), camonsertib (NSC841442), AZD-1390 (NSC803789), olaparib (NSC753686), talazoparib (NSC767125), rucaparib (NSC756644), sotorasib (NSC818433), MRTX-1133 (NSC836407), SN-38 (NSC673596), topotecan (NSC609699), epotoside (NSC141540), doxorubicin (NSC123127), gemcitabine (NSC613327), 5-fluorouracil (NSC19893), paclitaxel (NSC125973), vemurafenib (NSC761431), MSA-2 (NSC828583), SN-011 (NSC837082), adavosertib (NSC754352), prexasertib (NSC758257), carboplatin (NSC241240) and oxaliplatin (NSC266046), were obtained from the National Cancer Institute (NCI) Developmental Therapeutics Program Chemical Repository (21). The FDA-approved anticancer drug set is available from the Developmental Therapeutics Program at https://dtp.cancer.gov/organization/dscb/obtaining/. […] The stock solutions were prepared in dimethyl sulfoxide (DMSO, Sigma-Aldrich, St. Louis, MO, cat. D2650), except for the platinum compounds which were prepared in saline (Quality Biological, Gaithersburg, MD, cat. 114-055-101), at 800-fold the tested concentration and stored at -70 degrees C prior to their use. All drugs and investigational agents were tested over a range starting from a high concentration at or near the clinical Cmax and decreasing in half-log increments. If the clinical Cmax for an agent had not been determined, the highest concentration tested was 10 microM, except for SN-38, which was tested at a high concentration of 1 microM.
Cell Culture. All cells were maintained in an incubator at 37 degrees C and 5% CO2 with 95% humidity. The PDC lines were cultured according to standard operating procedures established by the NCI PDMR (https://pdmr.cancer.gov). Table 3 of the manuscript, lists the cell lines along with the number of the three cell types plated to form the mct-spheroids and media for tumor cell growth. After thawing, all PDC lines, except 997537-175-T-J1-PDC and 415267-285-R-J2-PDC, were cultured in Matrigel-coated flasks prepared with a working solution of 1X Ham's F-12 nutrient mix, without supplementation (Thermo Fisher Scientific, cat. 11765054), 100 U/mL penicillin-streptomycin (Thermo Fisher Scientific, cat. 15140122), and 2.5% Matrigel (Corning Inc., Corning, NY, cat. 354248) for the first three passages. The two PDC lines 997537-175-T-J1-PDC and 415267-285-R-J2-PDC were cultured on uncoated flasks. The 857933-349-R-J2-PDC line was cultured in 6C/Colon 1B media containing advanced DMEM/F-12 (Thermo Fisher Scientific, cat. 12634028), 10 mM HEPES (Thermo Fisher Scientific, cat. 15630080), 1X GlutaMAX supplement (Thermo Fisher Scientific, cat. 35050061), 0.1 mg/mL primocin (InvivoGen, San Diego, CA, cat. ant-pm-2), 10% defined fetal bovine serum, heat inactivated (HyClone Laboratories Inc., Logan, UT, cat. SH30070.03HI), 50% L-WRN conditioned media (ATCC, cat. CRL-3276), 1.25 mM N-Acetyl-L-cysteine (Sigma-Aldrich, cat. A9165), 10 mM nicotinamide (Sigma-Aldrich, cat. N0636), 1X B-27 supplement (Thermo Fisher Scientific, cat. 17504044), 1X N-2 supplement (Thermo Fisher Scientific, cat. […]
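Further: spheroids exposed to compounds for seven days before readout.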

As to `O=C(c1cc(Cc2n[nH]c(=O)c3ccccc23)ccc1F)N1CCN(C(=O)C2CC2)CC1`, the viability, T/C was 55%, 94% [2023-11] and 89.9% [2023-12] (compound alone 0.1 µM); 59.7%, 92% [2023-11] and 93.6% [2023-12] (compound alone 0.316 µM); 65.6%, 102% [2023-11] and 102% [2023-12] (compound alone 1 µM); 71%, 95.7% [2023-11] and 102% [2023-12] (compound alone 3.16 µM); 63%, 103% [2023-11] and 93% [2023-12] (compound alone 10 µM).
For `CC(=O)O[C@H]1C(=O)[C@@]2(C)[C@H]([C@H](OC(=O)c3ccccc3)[C@]3(O)C[C@H](OC(=O)[C@H](O)[C@@H](NC(=O)c4ccccc4)c4ccccc4)C(C)=C1C3(C)C)[C@]1(OC(C)=O)CO[C@@H]1C[C@@H]2O`, the viability, T/C was 84.1% [2023-11] and 96.4%, 58.7% [2023-12] (compound alone 0.00949 µM); 78.7% [2023-11] and 77.3%, 52.2% [2023-12] (compound alone 0.03 µM).
On to `CC1COCCN1c1cc(-c2ccnn2C)c2ccnc(-c3ccn[nH]3)c2n1` (stereo not drawn), for which the viability, T/C (compound alone 3.16 µM) is 23.5%, 54.5% [2023-11] and 55.6% [2023-12]. Moreover, under “compound alone”, the IC50 is 277 nM, 505 nM [2023-11] and > 10 µM [2023-12].
Regarding `Nc1ccc(C#CCN(C(=O)Cc2ncc(C(F)(F)F)cc2C(F)(F)F)c2ccc(F)cc2)nn1`, the viability, T/C (compound alone 10 µM) is 106, 96.8 (2×), 92.1, 104 (2×), 116, 99.8, 102, 89.5, 93.2, 95.8, 96.9%.
With `CC(C)n1c(=O)n(C)c2cnc3cc(F)c(-c4ccc(OCCCN5CCCCC5)nc4)cc3c21`, the viability, T/C (compound alone 0.0316 µM) is 59.3%, 98.5% [2023-11] and 111% [2023-12]; the viability, T/C (compound alone 0.1 µM) is 56%, 107% [2023-11] and 105% [2023-12]; the viability, T/C (compound alone 0.316 µM) is 71.7%, 107% [2023-11] and 100% [2023-12]; the viability, T/C (compound alone 1 µM) was 91.3%, 120% [2023-11] and 106% [2023-12]; the viability, T/C (compound alone 10 µM) was 60.8%, 93.4% [2023-11] and 99.6% [2023-12].
In the case of `CCCS(=O)(=O)Nc1ccc(F)c(C(=O)c2c[nH]c3ncc(-c4ccc(Cl)cc4)cc23)c1F`, the viability, T/C runs as follows: (compound alone 0.1 µM) 96.9% [2023-11] and 98.4%, 70.7% [2023-12]; (compound alone 3.16 µM) 96.6% [2023-11] and 106%, 72.2% [2023-12]; (compound alone 10 µM) 68.3% [2023-11] and 84.5%, 43.6% [2023-12].
